Our source for the binding signal values is article PMC9911399, “Two distinct binding modes provide the RNA-binding protein RbFox with extraordinary sequence specificity”.

Residue numbers refer to the chain shown, from its start. This is one part of the list.

B1: GAACCCC (DNA:RNA)
RNA: GGGAGACCGGAAUUCAGAUUGUCCGAACCCCUUAAAUCCCGUCGUAGCCACCA
DNA 1: CAATCTGAATTCCGGTCTCCC
DNA 2: TGGTGGCTACGACGGGATT
B2: UUUACGG (DNA:RNA)
RNA: B1 RNA with G25U, A26U, A27U, C28A, C30G, C31G
DNA 1: CAATCTGAATTCCGGTCTCCC
DNA 2: TGGTGGCTACGACGGGATT
B3: GACACAU (DNA:RNA)
RNA: B1 RNA with A27C, C28A, C30A, C31U
DNA 1: CAATCTGAATTCCGGTCTCCC
DNA 2: TGGTGGCTACGACGGGATT
B4: AACUCGG (DNA:RNA)
RNA: B1 RNA with G25A, A27C, C28U, C30G, C31G
DNA 1: CAATCTGAATTCCGGTCTCCC
DNA 2: TGGTGGCTACGACGGGATT
B5: CACUUCA (DNA:RNA)
RNA: B1 RNA with G25C, A27C, C28U, C29U, C31A
DNA 1: CAATCTGAATTCCGGTCTCCC
DNA 2: TGGTGGCTACGACGGGATT
B6: AGGACUG (DNA:RNA)
RNA: B1 RNA with G25A, A26G, A27G, C28A, C30U, C31G
DNA 1: CAATCTGAATTCCGGTCTCCC
DNA 2: TGGTGGCTACGACGGGATT
B7: UAUUGGA (DNA:RNA)
RNA: B1 RNA with G25U, A27U, C28U, C29G, C30G, C31A
DNA 1: CAATCTGAATTCCGGTCTCCC
DNA 2: TGGTGGCTACGACGGGATT
B8: CAAGUGA (DNA:RNA)
RNA: B1 RNA with G25C, C28G, C29U, C30G, C31A
DNA 1: CAATCTGAATTCCGGTCTCCC
DNA 2: TGGTGGCTACGACGGGATT
B9: AGAGCGG (DNA:RNA)
RNA: B1 RNA with G25A, A26G, C28G, C30G, C31G
DNA 1: CAATCTGAATTCCGGTCTCCC
DNA 2: TGGTGGCTACGACGGGATT
B10: AGUGUGA (DNA:RNA)
RNA: GGGAGACCGGAAUUCAGAUUGUCCAGUGUGAUUAAAUCCCGUCGUAGCCACCA
DNA 1: CAATCTGAATTCCGGTCTCCC
DNA 2: TGGTGGCTACGACGGGATT
B11: CUUCAAG (DNA:RNA)
RNA: B10 RNA with A25C, G26U, G28C, U29A, G30A, A31G
DNA 1: CAATCTGAATTCCGGTCTCCC
DNA 2: TGGTGGCTACGACGGGATT
B12: UUUCCAC (DNA:RNA)
RNA: B1 RNA with G25U, A26U, A27U, C30A
DNA 1: CAATCTGAATTCCGGTCTCCC
DNA 2: TGGTGGCTACGACGGGATT
B13: AUAUACC (DNA:RNA)
RNA: B1 RNA with G25A, A26U, C28U, C29A
DNA 1: CAATCTGAATTCCGGTCTCCC
DNA 2: TGGTGGCTACGACGGGATT
B14: GGAGUCU (DNA:RNA)
RNA: B10 RNA with A25G, U27A, G30C, A31U
DNA 1: CAATCTGAATTCCGGTCTCCC
DNA 2: TGGTGGCTACGACGGGATT
B15: CCUUUCG (DNA:RNA)
RNA: B10 RNA with A25C, G26C, G28U, G30C, A31G
DNA 1: CAATCTGAATTCCGGTCTCCC
DNA 2: TGGTGGCTACGACGGGATT
B16: AUUCCAA (DNA:RNA)
RNA: B10 RNA with G26U, G28C, U29C, G30A
DNA 1: CAATCTGAATTCCGGTCTCCC
DNA 2: TGGTGGCTACGACGGGATT
B17: CCUACAA (DNA:RNA)
RNA: B10 RNA with A25C, G26C, G28A, U29C, G30A
DNA 1: CAATCTGAATTCCGGTCTCCC
DNA 2: TGGTGGCTACGACGGGATT
B18: AUGCAGU (DNA:RNA)
RNA: B10 RNA with G26U, U27G, G28C, U29A, A31U
DNA 1: CAATCTGAATTCCGGTCTCCC
DNA 2: TGGTGGCTACGACGGGATT
B19: CGUGGUC (DNA:RNA)
RNA: B10 RNA with A25C, U29G, G30U, A31C
DNA 1: CAATCTGAATTCCGGTCTCCC
DNA 2: TGGTGGCTACGACGGGATT
B20: ACUCCGU (DNA:RNA)
RNA: B10 RNA with G26C, G28C, U29C, A31U
DNA 1: CAATCTGAATTCCGGTCTCCC
DNA 2: TGGTGGCTACGACGGGATT
B21: GGCUCAA (DNA:RNA)
RNA: B10 RNA with A25G, U27C, G28U, U29C, G30A
DNA 1: CAATCTGAATTCCGGTCTCCC
DNA 2: TGGTGGCTACGACGGGATT
B22: CCGGAUC (DNA:RNA)
RNA: B10 RNA with A25C, G26C, U27G, U29A, G30U, A31C
DNA 1: CAATCTGAATTCCGGTCTCCC
DNA 2: TGGTGGCTACGACGGGATT
B23: UCUGGAG (DNA:RNA)
RNA: B10 RNA with A25U, G26C, U29G, G30A, A31G
DNA 1: CAATCTGAATTCCGGTCTCCC
DNA 2: TGGTGGCTACGACGGGATT
B24: CCGGUAU (DNA:RNA)
RNA: B10 RNA with A25C, G26C, U27G, G30A, A31U
DNA 1: CAATCTGAATTCCGGTCTCCC
DNA 2: TGGTGGCTACGACGGGATT
B25: GUGAUAG (DNA:RNA)
RNA: B10 RNA with A25G, G26U, U27G, G28A, G30A, A31G
DNA 1: CAATCTGAATTCCGGTCTCCC
DNA 2: TGGTGGCTACGACGGGATT
B26: AUGAACC (DNA:RNA)
RNA: B1 RNA with G25A, A26U, A27G, C28A, C29A
DNA 1: CAATCTGAATTCCGGTCTCCC
DNA 2: TGGTGGCTACGACGGGATT
B27: AUUAGAA (DNA:RNA)
RNA: B10 RNA with G26U, G28A, U29G, G30A
DNA 1: CAATCTGAATTCCGGTCTCCC
DNA 2: TGGTGGCTACGACGGGATT
B28: CACAGAU (DNA:RNA)
RNA: B1 RNA with G25C, A27C, C28A, C29G, C30A, C31U
DNA 1: CAATCTGAATTCCGGTCTCCC
DNA 2: TGGTGGCTACGACGGGATT
B29: CCACAAC (DNA:RNA)
RNA: B1 RNA with G25C, A26C, C29A, C30A
DNA 1: CAATCTGAATTCCGGTCTCCC
DNA 2: TGGTGGCTACGACGGGATT
B30: UGAGACC (DNA:RNA)
RNA: B1 RNA with G25U, A26G, C28G, C29A
DNA 1: CAATCTGAATTCCGGTCTCCC
DNA 2: TGGTGGCTACGACGGGATT
B31: UCUUGGU (DNA:RNA)
RNA: B10 RNA with A25U, G26C, G28U, U29G, A31U
DNA 1: CAATCTGAATTCCGGTCTCCC
DNA 2: TGGTGGCTACGACGGGATT

For this test, the target named is T1, RBFOX1 RRM (Homo sapiens, UniProt Q9NWB1 109-208).
T1 sequence: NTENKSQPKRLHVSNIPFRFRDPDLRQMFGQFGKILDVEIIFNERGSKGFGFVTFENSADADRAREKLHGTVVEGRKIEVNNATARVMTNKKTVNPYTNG
In words: EMSA; HiTS-Eq, 1 nM pool, 10 min; buffer printed only for the single-RNA assays: 10 mM Tris pH 7.5, 150 mM NaCl, 3.4 mM EDTA, 0.001% NP-40, 30 C. The conditions noted are these: tags: His6 N-terminal (pET28a); label: 5' 32P. A digest of the protocol: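 Purified RbFox RRM (wild type or mutant) was equilibrated for 10 min in 50 µL with 1 nM of a 5′-radiolabelled pool of RNA with 7 randomized nucleotides, its flanks annealed to DNA oligonucleotides, across increasing protein concentrations. Free RNA was separated by 8% native PAGE, excised, reverse-transcribed, PCR-barcoded and sequenced on an Illumina HiSeq 2500. Relative association constants came from read-count changes of each variant against the control reaction, normalised to the cognate motif.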
In the case of B1, the binding signal is 0.00621 KA relative to UGCAUGU. In the case of B2, the binding signal was 0.00929 KA relative to UGCAUGU.

Turning to B3, the binding signal was 0.000474 KA relative to UGCAUGU. For the molecule B4, the binding signal was 0.00669 KA relative to UGCAUGU. As for B5, the figure is 0.00273 KA relative to UGCAUGU; as for B6, 0.0275 KA relative to UGCAUGU; as for B7, 0.00224 KA relative to UGCAUGU. As for B8, the figure is 0.00534 KA relative to UGCAUGU; as for B9, 0.0162 KA relative to UGCAUGU; as for B10, 0.0118 KA relative to UGCAUGU. Turning to B11, the binding signal is 0.00594 KA relative to UGCAUGU. In the case of B12, the binding signal was 0.00205 KA relative to UGCAUGU. With B13, the binding signal is 0.00226 KA relative to UGCAUGU.

Turning to B14, the binding signal is 0.0284 KA relative to UGCAUGU. Regarding B15, the binding signal was 0.0156 KA relative to UGCAUGU. On to B16, for which the binding signal is 0.00175 KA relative to UGCAUGU. Regarding B17, the binding signal was 0.00268 KA relative to UGCAUGU.

As for B18, the binding signal was 0.00999 KA relative to UGCAUGU.

As for B19, the binding signal is 0.017 KA relative to UGCAUGU. Turning to B20, the binding signal was 0.00461 KA relative to UGCAUGU. As to B21, the binding signal is 0.00157 KA relative to UGCAUGU. Consider B22, for which the binding signal is 0.0104 KA relative to UGCAUGU. As to B23, the binding signal is 0.00377 KA relative to UGCAUGU. Regarding B24, the binding signal was 0.00696 KA relative to UGCAUGU. Turning to B25, the binding signal was 0.0184 KA relative to UGCAUGU. As to B26, the binding signal was 0.00862 KA relative to UGCAUGU.

Consider B27, for which the binding signal is 0.006 KA relative to UGCAUGU.

Regarding B28, the binding signal was 0.00201 KA relative to UGCAUGU. As for B29, the figure is 0.00168 KA relative to UGCAUGU; as for B30, 0.00997 KA relative to UGCAUGU; as for B31, 0.0216 KA relative to UGCAUGU.
